83 molecules from PubChem BioAssay AID1346428 (National Center for Advancing Translational Sciences (NCATS), 2018) can be followed below.

Several values for one entry are separate records, joined by “and”; a condition that tells them apart may be missing. Equal values may be shown once. Out of some 48,000 compounds screened, about 1,200 (2.5%) were called active. Another 2% or so got no clear call; they are omitted.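 Rule for the calls: active = activation of at least 60% and not above a set upper limit (about 1 call in 100 departs from these limits); inconclusive = activation of 40% to 60%, or above that upper limit; inactive = activation under 40%.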 This is one part of the list.

For the assay, the target named is Probable G-protein coupled receptor 32 (Homo sapiens) (UniProt O75388). Put plainly: qHTS for Agonists of Human Resolvin D1 Receptor DRV1. Note: 0% is about no effect. To be noted: CHO-K1 GPR32 beta-arrestin PathHunter luminescence, 90 min; at 76.9 µM; active compounds read high; zero percent set by DMSO-only wells. An outline of the steps: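 CHO-K1 cells stably expressing ProLink-tagged GPR32 and Enzyme Activator-tagged beta-arrestin were seeded at 2,500 cells/well overnight, exposed to compounds for 90 min at 37 °C, then read by beta-Gal complementation chemiluminescence after 1 h detection reagent.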
UniProt O75388, sequence (O75388 whole entry, looked up): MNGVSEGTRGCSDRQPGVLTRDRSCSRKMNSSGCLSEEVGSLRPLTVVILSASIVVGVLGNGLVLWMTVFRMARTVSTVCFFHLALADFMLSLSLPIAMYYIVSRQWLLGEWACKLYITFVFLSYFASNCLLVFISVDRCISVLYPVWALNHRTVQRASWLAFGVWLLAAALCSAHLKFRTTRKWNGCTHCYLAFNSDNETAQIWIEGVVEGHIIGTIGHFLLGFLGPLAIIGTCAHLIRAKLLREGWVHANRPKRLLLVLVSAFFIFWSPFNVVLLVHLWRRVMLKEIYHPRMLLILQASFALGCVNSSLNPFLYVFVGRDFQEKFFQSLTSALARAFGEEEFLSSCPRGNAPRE
Background: In qHTS, concentration-response curves come from the screen itself.
`CCOc1ccccc1CN(CCc1ccc2c(c1)OCO2)Cc1cccc(OC)c1OC`: the activation is inactive: 35.3%.
Consider `CC1CN(C(=O)N2CCC(C(=O)NC3CCCCCC3)CC2)c2ccccc2O1` (stereo not drawn), for which the activation is inactive: -2.08%.
Then `COc1cc(NC(=O)C(CCS(C)(=O)=O)N2Cc3ccccc3C2=O)cc(OC)c1OC` (stereo not drawn), with inactive: -1.13%; and `CC1=C(C(=O)NCc2ccc(Cl)cc2)C2(CCCCCC2)OC1=O`, with inactive: -25.2%.
As to `COc1cccc(CSc2nc3n(n2)C(c2cccnc2)C(C(=O)Nc2ccccc2C)=C(C)N3)c1` (stereo not drawn), the activation was inactive: 1.83%.
Then `NCCCCN=C(N)N`, with inactive: 1.82%; and `Cc1ccc(N2CC(NC(=O)CCc3ccccc3)CC2=O)cc1` (stereo not drawn), with inactive: -4.3%.
Then `COc1ccccc1C(=O)NC(=O)Nc1ccc(-n2nc(C(F)(F)F)cc2C(F)(F)F)cc1`, with inactive: -3.89%; and `COc1ccccc1C(=O)Nc1ccc(C(=O)OCc2cc(=O)n3ccsc3n2)cc1`, with inactive: -5.74%; and `CCOC(=O)c1sc(NC(=O)c2cc3nc(-c4ccc(Br)cc4)cc(C(F)(F)F)n3n2)c(C(=O)OCC)c1C`, with inactive: -9.77%.
Then `Cc1nc2cc(C(=O)O)ccc2n1-c1ccc(C(C)C)cc1`, with inactive: 20.6%.
`Cc1cccc(N2CCN(C(=O)Cn3c(=O)c4cccn4c4ccc(F)cc43)CC2)c1C`: the activation was inactive: -16.5%.
Then `CCOC(=O)CCn1nc(C)c2c(C)n(-c3ccccc3)nc2c1=O`, with inactive: -9.95%; and `CC(C)CC(=O)Nc1ccc(Cl)c(-c2nc3ccccc3[nH]2)c1`, with inactive: 31.8%; and `Cc1nc2nc(SCC(=O)NCc3ccccc3)nn2c(C)c1Cc1ccccc1`, with inactive: -13.6%.
On to `Cc1ccc(NC(=O)c2ccc(Br)cc2)c(C(=O)c2ccccc2)c1`, for which the activation was inactive: -2.81%.
Then `N#Cc1ccc(NS(=O)(=O)c2ccc(-c3cnc(C4CC4)o3)cc2)cc1`, with inactive: 7.98%; and `O=C(O)[C@H]1NCCC[C@H]1C(=O)O`, with inactive: -5.26%; and `COc1ccc(OC)c(CNC(=O)CN2C(=O)CCn3nc(-c4cn(C)c5ccccc45)cc32)c1`, with inactive: -9.2%.
Regarding `CC(=O)Oc1ccccc1C(=O)O`, the activation was inactive: -3.61% and inactive: 3.12%.
Then `CCOC(=O)c1ccccc1NC(=O)N(Cc1ccco1)C1CCN(C(C)=O)CC1`, with inactive: 7.64%; and `CNC(=O)c1ccc(Nc2nnc(-c3ccc(C)c(S(=O)(=O)N4CCOCC4)c3)c3ccccc23)cc1`, with inactive: 25%; and `CCOc1nc(NC(=O)NS(=O)(=O)Oc2ccccc2Cl)nc(-c2ccccc2)n1`, with inactive: 23.6%.
Then `COc1cc2nc(NCC(C)c3ccccc3)n3nc(-c4ccccc4)nc3c2cc1OC` (stereo not drawn), with inactive: 4.41%; and `Cc1ccc(C)n1-c1nnc(N2CCCC(C(=O)NCc3ccccc3)C2)s1` (stereo not drawn), with inactive: -26.2%; and `Cc1ccc(NC(=O)CCc2c(C)nc3nc(C)nn3c2C)c(Cl)c1`, with inactive: 24.2%.
For `CCc1cccc(NC(=O)CN2C=NS(=O)(=O)c3ccccc32)c1`, the activation is inactive: 8.07%.
Turning to `COc1ccccc1-c1cc(C(F)(F)F)nc(S(=O)(=O)CCCC(=O)Nc2ccc(F)c(Cl)c2)n1`, the activation is inactive: -2.52%.
Then `COc1ccc(C(=O)N2CCC(c3c[nH]c4ccccc34)(c3c[nH]c4ccccc34)CC2)cc1`, with inactive: -0.997%.
Then `COc1ccccc1CNC(=O)c1oc2c(c1C)-c1nn(Cc3ccc(Cl)cc3)cc1CC2`, with inactive: -9.08%.
Consider `CN(C)c1ccc(CNC(=O)C2CCN(S(=O)(=O)c3cn(C)cn3)CC2)cc1`, for which the activation was inactive: -9.22%.
Take `COc1ccc(NC(=O)c2cc(C3CC3)nc3c2c(C)nn3-c2ccc(C)cc2)cc1OC`: the activation was inactive: -1.48%.
Then `Cc1c(NS(C)(=O)=O)cccc1-c1nc2ccccc2s1`, with inactive: 20%.
As to `COc1ccc(NC(=O)c2sc3nc(-c4cc5cccc(OC)c5oc4=O)[nH]c(=O)c3c2C)cc1`, the activation was inactive: 1.27%.
Turning to `Cc1ccc(C)c(CN2C(=O)c3ccccc3S(=O)c3ccc(C(=O)NCCc4ccc(Cl)cc4)cc32)c1` (stereo not drawn), the activation was inactive: -3.67%.
For `COc1cccc(CNC(=O)NCc2noc3ccc(C)cc23)c1`, the activation is inactive: -3.87%.
Then `CCOc1ccc(N(CC)S(=O)(=O)N2CCCC(C(=O)NCc3ccc(SC)cc3)C2)cc1` (stereo not drawn), with inactive: -19.5%.
For `Cc1ccc(NC(=O)CN2C=NS(=O)(=O)c3ccccc32)c(C)c1`, the activation is inactive: 1.97%.
Consider `COc1ccc(NC(=O)CN2C(=O)COc3ccc(S(=O)(=O)N4CCOCC4)cc32)cc1Cl`, for which the activation was inactive: -21%.
For `COc1ccc(NC(=O)Nc2nnc(N3CCCCCC3)s2)c(OC)c1`, the activation was inactive: -6.85%.
On to `COc1ccc(N2CCN(C(=O)CCS(=O)(=O)c3cc(Br)cc4c3N(C(=O)C3CC3)CC4)CC2)cc1`, for which the activation was inactive: -1.57%.
`Cc1ccc(N2CC(c3nnc(NC(=O)c4ccco4)s3)CC2=O)cc1C` (stereo not drawn): the activation was inactive: -13.6%.
Then `O=C(NC1CCCC1)c1ccc(CSc2nc3ccncc3n2Cc2ccc(F)cc2)cc1`, with inactive: -3.42%.
Then `COc1ccc(-n2cc(C(=O)NC(C)c3ccccc3)c3ccccc3c2=O)cc1` (stereo not drawn), with inactive: -19.9%; and `CCCCC[C@H](O)C=C[C@H]1[C@H](O)CC(=O)[C@H]1CC=CCCCC(=O)O`, with inactive: 2.74%; and `Cc1ccc(NC(=O)Cn2cc(S(=O)(=O)N3CCCC3)c(S(=O)(=O)N3CCCC3)c2)cc1C`, with inactive: -17.5%.
Then `CCN1CCN(c2cc(C)c3cc(NC(=O)/C=C/c4cccc(Cl)c4)ccc3n2)CC1`, with inactive: 21.7%; and `CCOc1ccc(NC(=O)c2ccc(-c3cccc(Cl)c3C)o2)cc1`, with inactive: -4.77%.
`CCOC(=O)c1cnc2c(ccc3ccccc32)c1Nc1ccc(OC)c(OC)c1`: the activation was inactive: -62.4%.
On to `O=c1c2cc3c(nc2ncn1Cc1ccccc1F)CCCC3`, for which the activation was inactive: -6.05%.
Then `CCOc1ccc(Cn2c(CNS(=O)(=O)c3ccc([N+](=O)[O-])cc3)nc3cccnc32)cc1`, with inactive: -6.39%; and `COCCn1ccc2c(OCC(=O)NCc3ccc(F)cc3)cccc2c1=O`, with inactive: 13.2%; and `COc1ccc(C(=O)NCCSc2c(C)[nH]c3ccccc23)cc1`, with inactive: -4.47%.
Then `Cc1ccc(NC(=O)Nc2nnc(SCC(=O)N3CCC(C)CC3)s2)cc1`, with inactive: 44.9%.
Consider `COc1ccc(NC(=O)CCCSc2nc(-c3ccco3)cc(C(F)(F)F)n2)cc1`, for which the activation is inactive: 0.203%.
Then `Cc1cc2c(cc1S(=O)(=O)NCc1ccccc1)OCC(=O)N2`, with inactive: 7.86%; and `Cc1ccc(NC(=O)c2ccc(COc3ccccc3Cl)o2)cc1`, with inactive: -16.8%; and `COc1ccccc1C(=O)Nc1c(C(=O)N2CCN(c3ccccc3F)CC2)oc2ccccc12`, with inactive: -16.2%.
With `CN(C)c1cccc(C(=O)Nc2nc3ccc(S(=O)(=O)NC(C)(C)C)cc3s2)c1`, the activation was inactive: 11.5%.
Then `Cc1ccc(CNC(=O)c2ccc3c(c2)NC(=O)C(CS(=O)(=O)Cc2ccc(F)cc2)N3)cc1` (stereo not drawn), with inactive: -0.495%; and `O=C(c1ccccc1)c1ccc2nc(N3CCN(c4ccccc4)CC3)c3nncn3c2c1`, with inactive: -10.3%; and `Cc1nc2ccc(S(=O)(=O)CCC(=O)Nc3ccc(C(C)C)cc3)cc2s1`, with inactive: -16.1%.
Then `CC(C)(C)c1ccc(C(=O)Nc2ccc(C(=O)OCc3cc(=O)n4ccsc4n3)cc2)cc1`, with inactive: 17.5%; and `CCC1CCCCN1CCCNC(=O)c1cn(CC)c2ccc(S(=O)(=O)N(C)C3CCCCC3)cc2c1=O` (stereo not drawn), with inactive: -4.33%.
Consider `CC1=C(/C=C/C(C)=C/C=C/C(C)=C/C(=O)O)C(C)(C)CCC1`, for which the activation is inactive: 9.01% and inactive: -7.02%.
Then `Cc1cc(C)cc(Nc2nc3ccccc3nc2-n2nc(C)cc2C)c1`, with inactive: -24.1%; and `CCOC(=O)N1CCc2c(sc3c2c(=O)n(Cc2ccccc2)c(=O)n3CC(=O)Nc2cccc(C)c2)C1`, with inactive: -12.8%.
Then `COC(=O)c1sc(-c2ccccc2)cc1NC(=O)Nc1ccccc1Cl`, with inactive: -27.2%.
Then `O=C(/C=C/c1ccc(O)c(O)c1)O[C@@H]1C[C@@](OC(=O)/C=C/c2ccc(O)c(O)c2)(C(=O)O)C[C@@H](O)[C@@H]1O`, with inactive: 16.4%; and `Cc1ccc(CNC(=O)C2(c3cccs3)CCOCC2)cc1`, with inactive: -24.7%; and `COc1ccc(-c2cn3c(n2)sc2cc(C(=O)Nc4c(C)cccc4C)ccc23)cc1`, with inactive: 7.42%.
As to `CCCCC(=O)Nc1cc(-c2nc3cccnc3s2)ccc1C`, the activation was inactive: -8.22%.
Then `CCc1ccc(NC(=O)c2cc3c(COC(C)=O)cnc(C)c3oc2=O)cc1`, with inactive: -4.36%; and `CCOc1ccc(NC(=O)CSc2ncnc3c2sc2ccccc23)cc1`, with inactive: -3.97%; and `CN(C)S(=O)(=O)c1ccc(C(=O)Nc2c(C(=O)Nc3ccc(F)cc3)oc3ccccc23)cc1`, with inactive: -2.61%.
Then `COc1ccc(C(=O)n2nc(-c3ccc(Cl)cc3)nc2NCc2ccco2)cc1`, with inactive: 1.74%; and `O=C(c1ccc2c(c1)N(Cc1ccc(Cl)cc1)C(=O)c1ccccc1S2(=O)=O)N1CCC(Cc2ccccc2)CC1`, with inactive: 9.5%.
Then `Cc1ccc(S(=O)(=O)Nc2ccc3[nH]c(=O)sc3c2)cc1C`, with inactive: 2.94%; and `O=C(Nc1cc2c(cc1C(=O)c1ccc(Br)cc1)OCCO2)c1ccc(Cl)cc1`, with inactive: 2.97%; and `CCOc1ccc(NC(=O)CSC2=Nc3ccccc3C3=NC(CC(=O)NCc4ccccc4OC)C(=O)N23)cc1` (stereo not drawn), with inactive: -27.4%.
Consider `O=C(c1ccc2c(c1)N(Cc1ccc(F)cc1)C(=O)c1ccccc1S2(=O)=O)N1CCCCCC1`, for which the activation is inactive: -1.35%.
Regarding `Cc1ccc(N2CC(NC(=O)c3ccco3)CC2=O)cc1` (stereo not drawn), the activation was inactive: -1.95%.
Then `COc1cccc(-n2c(=O)c3cc(OC)c(OC)cc3n(CC(=O)Nc3ccccc3)c2=O)c1`, with inactive: 2.95%.
